Among the data in patent US20080280910A1, “PHTHALAZINONE DERIVATIVES” (priority 2007, published 2008) are IC50 values, retold here.

As usually defined, the IC50 is the concentration at which inhibition is half-maximal.

The structures appear in SMILES notation.

The target in the test is Mammalian PARP, isolated from Hela cell nuclear extract (Homo sapiens, UniProt P09874). The experiment in a line: PARP inhibition assay (FlashPlate, 3H-NAD incorporation) to determine IC50. Type of test: biochemical. The settings on record: mean IC50. The method, then: In order to assess the inhibitory action of the compounds, the following assay was used to determine IC50 values (Dillon, et al., JBS., 8(3), 347-352 (2003)).
All compounds were diluted in DMSO and gave final assay concentrations of between 10 and 0.01 μM, with the DMSO being at a final concentration of 1% per well. The total assay volume per well was 40 μL.
After 10 minutes incubation at 30° C. the reactions were initiated by the addition of a 10 μl reaction mixture, containing NAD (5 μM), ^3H-NAD and 30mer double stranded DNA-oligos. Designated positive and negative reaction wells were done in combination with compound wells (unknowns) in order to calculate % enzyme activities. The plates were then shaken for 2 minutes and incubated at 30° C. for 45 minutes.
Following the incubation, the reactions were quenched by the addition of 50 μl 30% acetic acid to each well. The plates were then shaken for 1 hour at room temperature.
The plates were transferred to a TopCount NXT (TRADE MARK) (Packard, UK) for scintillation counting. Values recorded are counts per minute (cpm) following a 30 second counting of each well.
The % enzyme activity for each compound is then calculated using the following equation: […]
IC50 values (the concentration at which 50% of the enzyme activity is inhibited) were calculated, which are determined over a range of different concentrations, normally from 10 μM down to 0.001 μM. Such IC50 values are used as comparative values to identify increased compound potencies.
On to `O=C(Nc1cccc(-c2cc(Cc3n[nH]c(=O)c4ccccc34)ccc2F)c1)c1cccs1` [Compound 135], for which the IC50 stood at 29 nM. Then `O=C(Cc1cccnc1)Nc1cccc(-c2cc(Cc3n[nH]c(=O)c4ccccc34)ccc2F)c1` [Compound 136], with 7 nM; and `O=C(Nc1cccc(-c2cc(Cc3n[nH]c(=O)c4ccccc34)ccc2F)c1)c1ccc(F)cc1` [Compound 137], with 42 nM. Then `Cc1cc(C(=O)Nc2cccc(-c3cc(Cc4n[nH]c(=O)c5ccccc45)ccc3F)c2)n(C)n1` [Compound 138], with 31 nM; and `O=C(Nc1cccc(-c2cc(Cc3n[nH]c(=O)c4ccccc34)ccc2F)c1)c1cccnc1F` [Compound 139], with 39 nM; and `CN1CCC(C(=O)Nc2cccc(-c3cc(Cc4n[nH]c(=O)c5ccccc45)ccc3F)c2)CC1` [Compound 140], with 65 nM. Then `O=C(CCc1ccccc1)Nc1cccc(-c2cc(Cc3n[nH]c(=O)c4ccccc34)ccc2F)c1` [Compound 141], with 29 nM. As to `O=C(CCN1CCCCC1)Nc1cccc(-c2cc(Cc3n[nH]c(=O)c4ccccc34)ccc2F)c1` [Compound 142], the IC50 is 97 nM. For the compound `CC(Oc1ccccc1)C(=O)Nc1cccc(-c2cc(Cc3n[nH]c(=O)c4ccccc34)ccc2F)c1` (centres unmarked) [Compound 143], the IC50 worked out at 117 nM. As for `O=C(Cc1ccncc1)Nc1cccc(-c2cc(Cc3n[nH]c(=O)c4ccccc34)ccc2F)c1` [Compound 144], the IC50 was determined as 9 nM. With `O=C(Cn1ccc2ccccc21)Nc1cccc(-c2cc(Cc3n[nH]c(=O)c4ccccc34)ccc2F)c1` [Compound 145], the half-inhibitory concentration (IC50) amounted to 31 nM.

For `O=C(Nc1cccc(-c2cc(Cc3n[nH]c(=O)c4ccccc34)ccc2F)c1)C1CCc2ccccc2O1` (centres unmarked) [Compound 146], the IC50 amounted to 81 nM. Then `O=c1[nH]nc(Cc2ccc(F)c(-c3cccc(NS(=O)(=O)c4ccccc4)c3)c2)c2ccccc12` [Compound 147], with 53 nM. Next, `O=c1[nH]nc(Cc2ccc(F)c(-c3cccc(NS(=O)(=O)c4ccc(Cl)cc4)c3)c2)c2ccccc12` [Compound 148]: 76 nM. Then `Cc1noc(C)c1S(=O)(=O)Nc1cccc(-c2cc(Cc3n[nH]c(=O)c4ccccc34)ccc2F)c1` [Compound 149], with 27 nM. For the compound `O=c1[nH]nc(Cc2ccc(F)c(-c3cccc(NS(=O)(=O)c4ccc(F)cc4)c3)c2)c2ccccc12` [Compound 150], the concentration for half-maximal inhibition (IC50) came to 71 nM.

With `O=c1[nH]nc(Cc2ccc(F)c(-c3cccc(NS(=O)(=O)c4cccc5nonc45)c3)c2)c2ccccc12` [Compound 151], the IC50 came out at 36 nM. Next, `CCCCS(=O)(=O)Nc1cccc(-c2cc(Cc3n[nH]c(=O)c4ccccc34)ccc2F)c1` [Compound 152]: 19 nM.

Take `CCS(=O)(=O)Nc1cccc(-c2cc(Cc3n[nH]c(=O)c4ccccc34)ccc2F)c1` [Compound 153]: the half-inhibitory concentration (IC50) is 14 nM. `N#Cc1ccc(S(=O)(=O)Nc2cccc(-c3cc(Cc4n[nH]c(=O)c5ccccc45)ccc3F)c2)cc1` [Compound 154]: the IC50 was 22 nM.

Take `Cc1nc(C)c(S(=O)(=O)Nc2cccc(-c3cc(Cc4n[nH]c(=O)c5ccccc45)ccc3F)c2)s1` [Compound 155]: the IC50 came out at 38 nM.

In the case of `O=c1[nH]nc(Cc2ccc(F)c(-c3cccc(NS(=O)(=O)c4cccs4)c3)c2)c2ccccc12` [Compound 156], the half-maximal inhibitory concentration (IC50) was 41 nM.

For `O=c1[nH]nc(Cc2ccc(F)c(-c3cccc(NS(=O)(=O)c4ccc(Cl)s4)c3)c2)c2ccccc12` [Compound 158], the IC50 amounted to 123 nM.

In the case of `Cc1oncc1S(=O)(=O)Nc1cccc(-c2cc(Cc3n[nH]c(=O)c4ccccc34)ccc2F)c1` [Compound 159], the IC50 stood at 35 nM. Next, `O=C(Nc1cccc(-c2cc(Cc3n[nH]c(=O)c4ccccc34)ccc2F)c1)Nc1ccccc1F` [Compound 160]: 9 nM. Take `N#Cc1cccc(NC(=O)Nc2cccc(-c3cc(Cc4n[nH]c(=O)c5ccccc45)ccc3F)c2)c1` [Compound 161]: the IC50 came out at 23 nM. As for `O=C(Nc1cccc(-c2cc(Cc3n[nH]c(=O)c4ccccc34)ccc2F)c1)NC1CCCCC1` [Compound 162], the IC50 came to 88 nM. Then `O=C(Nc1cccc(-c2cc(Cc3n[nH]c(=O)c4ccccc34)ccc2F)c1)NC1CC1c1ccccc1` (centres unmarked) [Compound 163], with 102 nM; and `O=c1[nH]nc(Cc2ccc(-c3ccco3)cc2)c2ccccc12` [Compound 164], with 393 nM; and `Nc1cccc(-c2ccc(Cc3n[nH]c(=O)c4ccccc34)cc2)c1` [Compound 165], with 1520 nM. Then `O=C(O)c1cccc(-c2ccc(Cc3n[nH]c(=O)c4ccccc34)cc2)c1` [Compound 166], with 1180 nM; and `O=c1[nH]nc(Cc2ccc(-c3cccc(O)c3)cc2)c2ccccc12` [Compound 167], with 624 nM.

`O=c1[nH]nc(Cc2ccc(-c3ccnc(Cl)c3)cc2)c2ccccc12` [Compound 168]: the IC50 turned out to be 379 nM. Next, `O=C(c1cccc(-c2ccc(Cc3n[nH]c(=O)c4ccccc34)cc2)c1)N1CCSCC1` [Compound 170]: 1890 nM. Next, `O=C(c1cccc(-c2ccc(Cc3n[nH]c(=O)c4ccccc34)cc2)c1)N1CCCC1` [Compound 171]: 1990 nM. Then `O=C(NCc1ccco1)c1cccc(-c2ccc(Cc3n[nH]c(=O)c4ccccc34)cc2)c1` [Compound 173], with 788 nM; and `O=c1[nH]nc(Cc2ccc(-c3ccoc3)cc2)c2ccccc12` [Compound 174], with 309 nM. Consider `O=C(Nc1ccc(-c2cc(Cc3n[nH]c(=O)c4ccccc34)ccc2F)cc1)C1CC1` [Compound 175], for which the IC50 came to 57 nM. Consider `CN(C)CC(=O)Nc1ccc(-c2cc(Cc3n[nH]c(=O)c4ccccc34)ccc2F)cc1` [Compound 176], for which the IC50 amounted to 736 nM. Then `O=C(Nc1ccc(-c2cc(Cc3n[nH]c(=O)c4ccccc34)ccc2F)cc1)c1ccco1` [Compound 177], with 162 nM; and `O=C(Nc1ccc(-c2cc(Cc3n[nH]c(=O)c4ccccc34)ccc2F)cc1)c1ccno1` [Compound 178], with 196 nM.

Regarding `O=C(Nc1ccc(-c2cc(Cc3n[nH]c(=O)c4ccccc34)ccc2F)cc1)c1ccccc1` [Compound 179], the 50% inhibitory concentration (IC50) is 171 nM.

In the case of `O=C(Nc1ccc(-c2cc(Cc3n[nH]c(=O)c4ccccc34)ccc2F)cc1)c1ccncc1` [Compound 180], the IC50 came out at 88 nM. Then `O=C(Nc1ccc(-c2cc(Cc3n[nH]c(=O)c4ccccc34)ccc2F)cc1)c1cncnc1` [Compound 181], with 78 nM; and `Cn1nccc1C(=O)Nc1ccc(-c2cc(Cc3n[nH]c(=O)c4ccccc34)ccc2F)cc1` [Compound 182], with 218 nM; and `O=C(Nc1ccc(-c2cc(Cc3n[nH]c(=O)c4ccccc34)ccc2F)cc1)c1cccs1` [Compound 184], with 155 nM. Then `O=C(Cc1ccccc1)Nc1ccc(-c2cc(Cc3n[nH]c(=O)c4ccccc34)ccc2F)cc1` [Compound 185], with 54 nM; and `Cc1cc(C(=O)Nc2ccc(-c3cc(Cc4n[nH]c(=O)c5ccccc45)ccc3F)cc2)n(C)n1` [Compound 187], with 285 nM. For `O=C(Cc1cccs1)Nc1ccc(-c2cc(Cc3n[nH]c(=O)c4ccccc34)ccc2F)cc1` [Compound 188], the half-inhibitory concentration (IC50) is 31 nM. Next, `CN1CCC(C(=O)Nc2ccc(-c3cc(Cc4n[nH]c(=O)c5ccccc45)ccc3F)cc2)CC1` [Compound 189]: 554 nM.
